# From a collection of fitness landscapes (doi:10.1016/j.celrep.2020.107928)
# Whole data set: some 81,000 sequences, median “one-hybrid fitness for binding parS DNA” near -0.17, cut for the highest 2% near 0.51. The list shows a part of the results.
# B1: Caulobacter ParB omega fusion; a variant is named by its letters at X, in order, B8GW30 (parent)
# chain: MESVVVGEPGMSEGRRGLGRGLSALLGEVDAAPAQAPGEQLGGSREAPIEILQRNPDQPRRTFREEDLEDLSNSIREKGVLQPILVRPSPDTAGEYQIVAGERAWRAAQRAGLKTVPIMVRELDDLAVLEIGIIENVQRADLNVLEEALSYKVLMEKFERTQENIAQTIGKSXSHVANXMRLLXLPDEVQSYLVSGELTAXHARAIAAAADPVALAKQIIEGGLSVRETEALARKAPNLSAGKSKGGRPPRVKDTDTQALESDLSSVLGLDVSIDHRGSTGTLTITYATLEQLDDLCNRLTRGI
# Variants of: B1
# Experiment: one-hybrid fitness for binding parS DNA (scaled: cognate 1, non-cognate 0); higher = stronger binding
# Conditions: with parS DNA site
# Method in brief: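 The reporter was HIS3, with the binding site 19 bp from the promoter, in E. coli USO used for bacterial one-hybrid selection of Caulobacter ParB libraries with four specificity codons randomised. Growth was on M9 lacking histidine, with 0.1 mM IPTG and 5 mM 3-AT, for 48 hours at 37°C. Illumina sequencing covered plasmids before and after selection; three replicate libraries were pooled and variants with under 10 reads dropped. A fitness score is the log change in variant-to-wild-type read ratio, rescaled to the cognate and non-cognate references.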
row,Variant,one-hybrid fitness for binding parS DNA
1,KMVA,≤ 0.2
2,LIAC,≤ 0.2
3,ALVD,≤ 0.2
4,CPMR,≤ 0.2
5,GDTG,≤ 0.2
6,KRTR,≤ 0.2
7,MVGD,≤ 0.2
8,TSSV,≤ 0.2
9,TKQP,≤ 0.2
10,SNWR,≤ 0.2
11,PKCF,≤ 0.2
12,TMQC,≤ 0.2
13,MKYR,≤ 0.2
14,QANG,≤ 0.2
15,RLQE,≤ 0.2
16,VRTF,≤ 0.2
17,QHSL,≤ 0.2
18,GGST,≤ 0.2
19,QSEN,≤ 0.2
20,MEMV,≤ 0.2
21,HGVS,≤ 0.2
22,QCTI,≤ 0.2
23,RKVN,0.36
24,SNLY,≤ 0.2
25,LENC,≤ 0.2

row,Variant,one-hybrid fitness for binding parS DNA
1,VEAG,≤ 0.2
2,GMMM,≤ 0.2
3,ASIT,≤ 0.2
4,VRLE,≤ 0.2
5,NRGE,≤ 0.2
6,DHKN,≤ 0.2
7,KELL,≤ 0.2
8,LQTF,≤ 0.2
9,QILD,≤ 0.2
10,HHER,≤ 0.2
11,PMLI,≤ 0.2
12,AVMV,≤ 0.2
13,ILMG,≤ 0.2
14,FCES,≤ 0.2
15,RKRA,0.774
16,AFNL,≤ 0.2
17,RNQR,≤ 0.2
18,DLMR,≤ 0.2
19,DYTL,≤ 0.2
20,LTYE,≤ 0.2
21,SWPT,≤ 0.2
22,LLKF,≤ 0.2
23,RETN,≤ 0.2
24,DNIR,≤ 0.2
25,HEWM,≤ 0.2

row,Variant,one-hybrid fitness for binding parS DNA
1,RYRD,≤ 0.2
2,AHQR,≤ 0.2
3,VDYK,≤ 0.2
4,CCLT,≤ 0.2
5,GLLP,≤ 0.2
6,PQSE,≤ 0.2
7,VTMN,0.206
8,QAPN,≤ 0.2
9,DKYT,≤ 0.2
10,RQWS,0.959
11,AYNC,≤ 0.2
12,PNTI,≤ 0.2
13,EVPG,≤ 0.2
14,RINA,0.596
15,DACC,≤ 0.2
16,EPLS,≤ 0.2
17,SGRG,≤ 0.2
18,KFRG,≤ 0.2
19,VFRC,≤ 0.2
20,LPRR,≤ 0.2
21,ERER,≤ 0.2
22,YNTA,≤ 0.2
23,PSYC,≤ 0.2
24,RTNP,≤ 0.2
25,ANQV,≤ 0.2

row,Variant,one-hybrid fitness for binding parS DNA
1,NTTC,≤ 0.2
2,CSNS,≤ 0.2
3,PLWC,≤ 0.2
4,EDPE,≤ 0.2
5,ISNT,≤ 0.2
6,TYAP,≤ 0.2
7,RPPF,≤ 0.2
8,WESH,≤ 0.2
9,PYQC,≤ 0.2
10,VLQR,≤ 0.2
11,CIHR,≤ 0.2
12,PLTM,≤ 0.2
13,KIKL,≤ 0.2
14,TKML,≤ 0.2
15,SMVG,≤ 0.2
16,VMPT,≤ 0.2
17,NQGR,≤ 0.2
18,TTMY,≤ 0.2
19,SAWT,≤ 0.2
20,MRRI,≤ 0.2
21,YVKR,≤ 0.2
22,PSIW,≤ 0.2
23,TYNI,≤ 0.2
24,PPAK,≤ 0.2
25,HMGS,≤ 0.2

row,Variant,one-hybrid fitness for binding parS DNA
1,SHDG,≤ 0.2
2,SPMR,≤ 0.2
3,SALW,≤ 0.2
4,CMPT,≤ 0.2
5,EAWR,≤ 0.2
6,MVSG,≤ 0.2
7,VSWC,≤ 0.2
8,QLWI,≤ 0.2
9,KIQC,≤ 0.2
10,RCRA,0.796
11,CWYT,≤ 0.2
12,LCTT,≤ 0.2
13,ISQK,≤ 0.2
14,CLCS,≤ 0.2
15,TYVF,≤ 0.2
16,VHQS,≤ 0.2
17,RTHL,≤ 0.2
18,LAYN,≤ 0.2
19,KRHQ,≤ 0.2
20,CFKR,≤ 0.2
21,SASM,≤ 0.2
22,TVCY,≤ 0.2
23,YWDG,≤ 0.2
24,TAQW,≤ 0.2
25,VYPR,≤ 0.2

row,Variant,one-hybrid fitness for binding parS DNA
1,RRGM,0.391
2,LRTH,≤ 0.2
3,AHVG,≤ 0.2
4,QYGN,≤ 0.2
5,QTNF,≤ 0.2
6,SGHL,≤ 0.2
7,MDSR,≤ 0.2
8,NIWG,≤ 0.2
9,CLLR,≤ 0.2
10,ECWS,≤ 0.2
11,FADC,≤ 0.2
12,IKTS,≤ 0.2
13,SYPG,≤ 0.2
14,TLQY,≤ 0.2
15,SHLT,≤ 0.2
16,ICSV,≤ 0.2
17,SDEV,≤ 0.2
18,MYTS,≤ 0.2
19,YVIY,≤ 0.2
20,LADA,≤ 0.2
21,PSEY,≤ 0.2
22,YACA,≤ 0.2
23,SPFK,≤ 0.2
24,SCSQ,≤ 0.2
25,DPMG,≤ 0.2

row,Variant,one-hybrid fitness for binding parS DNA
1,ERPN,≤ 0.2
2,RKRV,≤ 0.2
3,QIGF,≤ 0.2
4,YKER,≤ 0.2
5,LSQF,≤ 0.2
6,RTWQ,≤ 0.2
7,AALG,≤ 0.2
8,RHIC,0.651
9,FPPR,≤ 0.2
10,RMWT,0.904
11,NLKC,≤ 0.2
12,GGHR,≤ 0.2
13,QANI,≤ 0.2
14,QKPA,≤ 0.2
15,TCMT,≤ 0.2
16,RWVW,≤ 0.2
17,PCNT,≤ 0.2
18,IQQN,≤ 0.2
19,PSSN,≤ 0.2
20,WYFT,≤ 0.2
21,WDVL,≤ 0.2
22,VEFG,≤ 0.2
23,YYKS,≤ 0.2
24,WSQV,≤ 0.2
25,DIEN,≤ 0.2

row,Variant,one-hybrid fitness for binding parS DNA
1,HRKY,≤ 0.2
2,SSPD,≤ 0.2
3,KAHQ,≤ 0.2
4,PFPY,≤ 0.2
5,NLNF,≤ 0.2
6,CGTA,≤ 0.2
7,FDTS,≤ 0.2
8,WSYY,≤ 0.2
9,WTHC,≤ 0.2
10,HDRC,≤ 0.2
11,RRNL,≤ 0.2
12,PGRN,≤ 0.2
13,CELN,≤ 0.2
14,RYQF,0.207
15,KAKR,≤ 0.2
16,RKFK,≤ 0.2
17,PAPC,≤ 0.2
18,AMMM,≤ 0.2
19,PDQY,≤ 0.2
20,HTDR,≤ 0.2
